This is one part of the list.
Tested on: T1, C. trachomatis L2/434/Bu expressing GFP (CTL2-GFP)
T1 construct: L2/434/Bu GFP intracellular growth in HeLa cells
Parameters: species or system HeLa; C. trachomatis total inclusion area by high-content imaging, normalised to DMSO
Details: total inclusion area; 28.5 h, 10 µM; inhibitor
How it was run: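 After bulk GFP and resorufin fluorescence reads, cells were fixed, stained with Hoechst and imaged by high-content microscopy. Inclusion area and number (GFP) stood in for chlamydial growth, nuclei count (Hoechst) for host cell viability. MICs were derived as for the bulk readout.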

Structure (SMILES) | % of control remaining
CN(Cc1ccccc1)Cc1c(C2CCNCC2)[nH]c2ncccc12 [CBK285083] | 68.2766
COc1ccc2[nH]cc(CCNC(=O)c3ccc(-c4cccc(N(C)C)c4)nc3N(C)C(C)=O)c2c1 [CBK076589] | 112.842
Cc1cc(N2CCOC3(CCN(C(=O)c4ccc5ccccc5c4)CC3)C2)nc(N)n1 [CBK161125A] | 84.7738
COc1ccc(CCN2CCC(Oc3cncc(OCC4COc5ccccc5O4)n3)C2)cc1OC (stereo not shown) [CBK084389] | 76.2224
O=S(=O)(c1cccs1)N1CCc2ccccc2C1 [CBK044531] | 90.1843
O=C1Cc2cc3ccccc3cc2C2(CCN(CCC(F)=C(F)F)CC2)N1 [CBK040033] | 78.085
COc1ccc(N(CC(=O)Nc2ccc3c(c2)oc2ccccc23)S(=O)(=O)c2ccccc2)cc1 [CBK264814] | 121.206
COc1nccnc1OC1CCN(Cc2ccccc2-c2ccccc2)CC1 [CBK084246] | 75.0307
COc1cc(C=c2sc(=CC(=O)C(C)(C)C)[nH]c2=O)ccc1OCC(=O)O [CBK296948] | 107.157
NS(=O)(=O)c1ccc(NC(=O)CSc2ccc3ccccc3n2)cc1 [CBK265663] | 117.474
Cc1nn(C)c(C)c1OCC(=O)Nc1cc(C(C)(C)C)sc1C#N [CBK305383] | 48.3649
CCc1c(C)nc2c(-c3ccc(OC)c(OC)c3)cnn2c1O [CBK287962] | 101.228
COc1ccc(C(=O)C=c2[nH]c(=O)c(=Cc3ccc(C(=O)O)cc3)s2)cc1 [CBK295614] | 99.6618
Cc1ccc(NC(=O)Nc2ccc(F)cc2)cc1S(=O)(=O)N(C)C [CBK269482] | 81.0947
COc1cc(-c2nc(N)n[nH]2)cc(OC)c1OC [CBK288077] | 89.2861
Cc1cc(C)n(C2CCN(Cc3ccc4ccccc4n3)CC2)n1 [CBK281622] | 108.894
CC(=O)C1=C(O)C(=O)N(CC(=O)O)C1c1ccc(Br)cc1 (stereo not shown) [CBK286712] | 92.7979
O=C(Nc1ncccc1O)c1cnc2c(cnn2C2CCCC2)c1 [CBK305246] | 24.1213
FC(F)(F)c1ccnc(Sc2ccncc2)c1 [CBK093793] | 100.672
Cc1cccnc1C(NC(=O)C1CCN(Cc2cccn2C)CC1)c1ccc(Cl)cc1 (stereo not shown) [CBK148174] | 90.5276
Cc1ccc(NS(=O)(=O)c2ccc(OCC(=O)N3CCN(C)CC3)c(C)c2)cc1 [CBK267834] | 78.1012
COC1C(O)C(CO)OC1n1cnc2c(=O)[nH]c(N)nc21 (stereo not shown) [CBK201324] | 107.363
COc1cccc(NS(=O)(=O)c2cc(CC(=O)O)ccc2OC)c1 [CBK298333] | 71.8262
Cc1nnc(SCC(=O)Nc2nonc2C)s1 [CBK269227] | 101.133
Cc1noc(C)c1NC(=O)CN1CCOCC1 [CBK200381] | 50.5755
COc1cccc(C2(O)CCC3CN(C(C)=O)CC32)c1 (stereo not shown) [CBK283222] | 82.1992

Structure (SMILES) | % of control remaining
c1coc(CNc2cncc(-c3cccs3)n2)c1 [CBK065630] | 137.329
O=S(=O)(c1ccc(F)cc1F)n1ccc2c(N3CCNCC3)nccc21 [CBK059061C] | 75.5127
O=C(C1CCC1)N1C2CCC1CC(O)(c1ccc(F)cc1)C2 (stereo not shown) [CBK283547] | 99.7388
O=C(NCc1ccccc1)c1ccc2[nH]nnc2c1 [CBK200368] | 91.2286
O=C(COc1ccccc1)N1CCCC1c1cccc(Cc2ccc(F)cc2)n1 (stereo not shown) [CBK286230] | 95.3796
CC1(C)C2CCC1(CS(=O)(=O)N1CCC(C(N)=O)CC1)C(=O)C2 (stereo not shown) [CBK269499] | 84.0466
CC(C)OC(=O)N1CCC(CNc2ncc(-c3ccc(S(C)(=O)=O)cc3)cn2)CC1 [CBK165367] | 56.9804
O=C(COc1ccccc1O)NCCN1CCOCC1 [CBK262243C] | 110.18
CSc1nsc(NC(=O)Nc2ccccc2)n1 [CBK027286] | 45.8472
O=C(NC1CCCN(c2cc(-c3ccncc3)n[nH]2)C1)c1ccsc1 (stereo not shown) [CBK288619] | 77.8897
c1ccc2cc(-c3cncc(NCc4ccncc4)n3)ccc2c1 [CBK037899] | 69.3754
CCNC(=O)N1CCN(CCOC(c2ccc(F)cc2)c2ccc(F)cc2)CC1 [CBK024943C] | 94.0633
CC1CCN(Cc2nc3c(c(=O)n(C)c(=O)n3C)n2CCN2CCOCC2)CC1 [CBK269291] | 114.989
Fc1ccccc1CN(CCCn1ccnc1)Cc1cccnc1 [CBK283099] | 116.589
CN(c1ccccc1C(N)=O)S(=O)(=O)c1ccc(S(=O)(=O)C(F)F)cc1 [CBK298289] | 95.631
COc1ccc(Nc2nc(-c3ccc(F)cc3)cs2)c(OC)c1 [CBK131705] | 94.8227
CN(C)CCN1CCN(c2nc(-c3ccc4c(c3)OCO4)cnc2N)CC1 [CBK063495] | 140.842
CC(NC(=O)C1CC(=O)N(Cc2ccccn2)C1)c1ccc(F)cc1 (stereo not shown) [CBK304552] | 107.377
COc1cccc(C(=O)Nc2nc(-c3ccccc3)cs2)c1OC [CBK287697] | 112.435
O=C(O)CC1C(=O)NCCN1Cc1cccc(Oc2ccccc2)c1 (stereo not shown) [CBK270023] | 111.912
OC1(c2cccnc2F)CCN(Cc2c(F)cccc2Cl)CC1 [CBK283148] | 100.233
Cc1nc(C(=O)NC2CCN(C)CC2)ccc1C(=O)O [CBK304262] | 56.1545
CCCn1c(C)c(C)n2c3c(=O)n(CCC(=O)OC)c(=O)n(C)c3nc12 [CBK306048] | 36.7228
Cn1cc2c(n1)CC1CCC2N1C(=O)c1ccc(F)c(F)c1 (stereo not shown) [CBK281691] | 108.727
COc1ncc(-c2nccnc2NCc2cccc([N+](=O)[O-])c2)c(OC)n1 [CBK036680] | 82.7255
O=C(c1ccc2c(c1)N(Cc1ccccc1Cl)C(=O)CO2)c1cccs1 [CBK286411] | 91.1903

From PMC12040169 (PLOS Biology, 2025)
